Experimental data: publication PMC4336329 (PLoS ONE, 2015)
Among all 310,000 compounds or so, about 2,200 (0.71%) showed an effect of 50% or more. The effect is printed as a negative number. Some of the results follow.

These compounds were tested against human ether-à-go-go-related gene (hERG) potassium channel (human, UniProt Q12809) (assay: primary screen, population patch clamp on CHO cells stably expressing hERG).
Chain of human ether-à-go-go-related gene (hERG) potassium channel (Q12809 whole entry, looked up): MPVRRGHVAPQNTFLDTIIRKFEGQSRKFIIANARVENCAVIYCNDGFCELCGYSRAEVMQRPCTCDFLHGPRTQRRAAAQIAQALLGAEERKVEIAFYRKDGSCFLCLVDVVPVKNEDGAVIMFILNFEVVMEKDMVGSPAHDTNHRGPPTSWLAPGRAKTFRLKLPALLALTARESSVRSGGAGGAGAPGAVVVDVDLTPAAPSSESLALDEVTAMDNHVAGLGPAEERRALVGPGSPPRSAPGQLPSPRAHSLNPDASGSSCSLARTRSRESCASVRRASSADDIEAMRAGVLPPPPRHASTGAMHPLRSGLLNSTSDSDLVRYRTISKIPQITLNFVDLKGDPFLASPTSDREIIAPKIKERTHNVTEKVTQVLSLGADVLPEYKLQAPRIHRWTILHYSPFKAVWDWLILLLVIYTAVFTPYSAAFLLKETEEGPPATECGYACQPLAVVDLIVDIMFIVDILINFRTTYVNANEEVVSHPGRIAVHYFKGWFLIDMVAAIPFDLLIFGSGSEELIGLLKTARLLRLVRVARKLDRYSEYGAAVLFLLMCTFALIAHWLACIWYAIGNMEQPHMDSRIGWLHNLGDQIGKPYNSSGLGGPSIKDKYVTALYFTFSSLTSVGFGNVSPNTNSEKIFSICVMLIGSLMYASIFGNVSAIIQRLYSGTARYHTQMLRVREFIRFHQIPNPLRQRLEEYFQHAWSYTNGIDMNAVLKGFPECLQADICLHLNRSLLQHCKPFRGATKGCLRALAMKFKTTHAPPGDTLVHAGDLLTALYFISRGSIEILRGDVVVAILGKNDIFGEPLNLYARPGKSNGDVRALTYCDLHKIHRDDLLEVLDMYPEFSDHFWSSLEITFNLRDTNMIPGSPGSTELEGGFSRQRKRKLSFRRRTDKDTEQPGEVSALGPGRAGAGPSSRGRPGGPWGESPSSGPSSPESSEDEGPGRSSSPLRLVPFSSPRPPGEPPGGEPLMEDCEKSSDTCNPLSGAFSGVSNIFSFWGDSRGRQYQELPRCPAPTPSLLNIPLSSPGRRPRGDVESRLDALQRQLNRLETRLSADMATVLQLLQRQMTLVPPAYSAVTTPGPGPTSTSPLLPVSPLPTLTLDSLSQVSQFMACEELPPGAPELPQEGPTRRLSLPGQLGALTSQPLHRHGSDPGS

Structure (SMILES) | hERG current change (%, negative = inhibition) at 1uM
CCn1c2ccccc2c2cc(NC(=O)C(C)OC(=O)c3ccc(NC(=O)CC#N)cc3)ccc21 (stereo not drawn) | 19.4%
CC(=O)Oc1cc2c(C(=O)NCCN3CCOCC3)c(C)oc2c2ccccc12 | -6.5%
N#Cc1c(Cl)nc(-c2cccnc2)nc1-c1ccccc1 | 11.4%
CCOC(=O)CCCNS(=O)(=O)c1c(C)ccc2nsnc12 | 1.17%
O=C1CCc2cc(NS(=O)(=O)c3ccc(F)cc3)cc3c2N1CC3 | -0.223%
CC(C)(C)OC(=O)N1CCC[C@H]1C(=O)Nc1ccc(S(=O)(=O)C(F)F)cc1 | 14.8%
Cc1cccc(C(=O)c2cnc3ccccc3c2-c2ccccc2)c1 | 9.09%
CN(CC(=O)Nc1ccc(Cl)c(C(F)(F)F)c1)C(=O)Cn1cc([N+](=O)[O-])ccc1=O | -7.11%
CC(=O)Nc1ccc(S(=O)(=O)N(C)CC(=O)OCC(=O)NC(C)C23CC4CC(CC(C4)C2)C3)cc1.CN(C)C=O (stereo not drawn) | 18.3%
Cc1cc(-c2nnc(SCC(=O)N3C(C)CCCC3C)o2)no1 (stereo not drawn) | 15.6%
O=C(CN1C2CCC1CC(NC(=O)Nc1ccccc1)C2)NCc1ccco1 (stereo not drawn) | -10.7%
COc1cc(S(=O)(=O)n2ccnc2)ccc1Br | 5.84%
C1=C(c2ccccc2)CCN(c2nc3ccccc3n3cnnc23)C1 | 11.5%
Cc1cccc2cc(CN(Cc3ccco3)C(=O)NC3CCCCC3)c(=O)[nH]c12 | -8.16%
O=C1NC(=O)N(Cc2cccs2)C(=O)/C1=C/c1ccc(N2CCOCC2)cc1 | 10.9%
O=C(NC1(C(F)(F)F)Oc2ccccc2O1)N1CCC2(CC1)OCCO2 | -1.45%
CC(C)(C)OC(=O)CNC(=O)c1[nH]cnc1C(=O)NCC(=O)OCc1ccccc1 | 1.86%
O=C(Cn1cc(S(=O)(=O)N2CCN(c3ccccc3F)CC2)c2ccccc2c1=O)NCCCN1CCCCCC1 | 10.5%
CCOc1ccccc1NC(=O)C(NCC1(N2CCCCC2)CCCCC1)c1ccccc1.O=C(O)C(=O)O (stereo not drawn) | -57.4%
COCCNC(=O)Cn1nc(C)c2ccccc2c1=O | 14.9%
CCc1ccc([C@@H]2CC=C(C(=O)O)[C@H](c3ccccc3)N2S(=O)(=O)c2ccc(C)cc2)cc1 | 13%
NS(=O)(=O)c1ccc(CCNC(=O)c2ccc(C#CC3(O)CCCCC3)cc2)cc1 | 11.5%
CC(SC1=Nc2ccccc2C2CC=NN12)C(=O)NC1(C#N)CCCCC1 (stereo not drawn) | 8.3%
CN1CCN(c2nc(Nc3ccc(O)cc3)nc3ccccc23)CC1.Cl | -1.34%
O=C(Nc1cc(-c2ccccc2)nn1-c1ccccc1)c1ccccc1F | 3.96%
CCC(C)NC(=O)Cn1cc2c(n1)CCC(C)C2 (stereo not drawn) | 16.1%
O=C(NC(=S)Nc1ccc(Cl)cc1)c1ccccc1 | 16.9%

Structure (SMILES) | hERG current change (%, negative = inhibition) at 1uM
Cc1ccc(S(=O)(=O)N2CCOCC2)cc1C(=O)N(C)CCOc1ccc(Cl)cc1 | -18.6%
ClC(Cl)(c1nnnn1-c1ccccc1)c1nnnn1-c1ccccc1 | 5.48%
CC(C)OC(=O)CSc1n[nH]c(-c2cccnc2)n1 | 16.5%
COc1ccc(C(=O)NCCS(=O)(=O)N2CCc3ccccc3C2)c(OC)c1 | -2.92%
O=C(CCN1C(=O)c2ccccc2S1(=O)=O)Nc1ccc(Cl)cc1 | 18.9%
CCOc1ccc(CN2CCN(CCCc3ccccc3)C(CCO)C2)cc1 (stereo not drawn) | -75.8%
COc1ccc(N2CCN(c3ccc(C(N)=O)cc3[N+](=O)[O-])CC2)cc1 | 12.4%
COC(=O)c1c(=O)n(O)c2ccc(OC)cc2[n+]1[O-] | 13%
Cc1cc(C)cc(OCCNC(=O)CCc2ccccc2)c1 | 12.8%
COC(=O)c1c(NC(=S)NN2CCN(C)CC2)sc2c1CCC(C)C2 (stereo not drawn) | 40.3%
CC(C)CNC(=O)c1ccc(NC(=O)c2cccs2)cc1 | 6.6%
CC1CCCCC1NC(=O)CSc1nnc(-c2ccncc2)n1CCCN(C)C.O=C(O)C(=O)O (stereo not drawn) | 12.1%
O=C1CSC2(C(=O)N3CCCc4cccc2c43)N1c1cccc(C(F)(F)F)c1 (stereo not drawn) | -10.6%
CCCn1nc(C(=O)NCCc2ccc(S(N)(=O)=O)cc2)c2ccccc2c1=O | 9.63%
COc1ccc(NC(=O)NCCCN2CCC(Cc3ccccc3)CC2)cc1 | -82.2%
Cc1ccc(N(CC(=O)NC(C)C)C(=O)CCC(=O)Nc2ccccn2)cc1 | 19%
Cc1ccc(C(=O)N/C(=C\c2cn(C)c3ccccc23)C(=O)N2CCOCC2)cc1 | 10.6%
Cc1ccc(C(=O)NC2CCN(S(=O)(=O)c3ccc(F)cc3)CC2)cc1 | 9.73%
COc1ccc(C)cc1N(CC(=O)Nc1ccc2c(c1)OCCO2)S(C)(=O)=O | 14.1%
COCCNC(=O)Cn1nc(-c2ccc(C)cc2)c2ccccc2c1=O | 11.3%
CCOc1ccccc1N(CC(=O)Nc1ccccc1C(=O)OC)S(C)(=O)=O | 12.7%
COc1cccc(CNCC(=O)N2C(C)CCCC2C)c1.O=C(O)C(=O)O (stereo not drawn) | 5.9%
CC(=O)c1ccc(N2CCN(S(=O)(=O)c3cc4c(cc3C)NC(=O)CO4)CC2)cc1 | 9.17%
CC(O)CC(C)O (stereo not drawn) | 19.3%
CC1(C)Oc2ccc3ccc(=O)oc3c2/C(=C/NCCN/C=C2\C(=O)C(C)(C)Oc3ccc4ccc(=O)oc4c32)C1=O | 2.08%
Cc1ccc(Oc2cc(C)nc(-c3ccccc3O)n2)cc1 | -0.342%
COc1ccc(NC(=S)NC2CC3CCC(C2)N3Cc2ccco2)cc1 (stereo not drawn) | 0.388%
